The results in this text go back to PMC6155134.

The chains behind the UniProt entries cited, without tags or fusion partners. Where a name states a change or a piece, a line headed by the entry shows the natural chain unless it says otherwise. A line that says so, or that is headed by a name, gives the form on record, which may keep a tag or linker.
UniProt O15409: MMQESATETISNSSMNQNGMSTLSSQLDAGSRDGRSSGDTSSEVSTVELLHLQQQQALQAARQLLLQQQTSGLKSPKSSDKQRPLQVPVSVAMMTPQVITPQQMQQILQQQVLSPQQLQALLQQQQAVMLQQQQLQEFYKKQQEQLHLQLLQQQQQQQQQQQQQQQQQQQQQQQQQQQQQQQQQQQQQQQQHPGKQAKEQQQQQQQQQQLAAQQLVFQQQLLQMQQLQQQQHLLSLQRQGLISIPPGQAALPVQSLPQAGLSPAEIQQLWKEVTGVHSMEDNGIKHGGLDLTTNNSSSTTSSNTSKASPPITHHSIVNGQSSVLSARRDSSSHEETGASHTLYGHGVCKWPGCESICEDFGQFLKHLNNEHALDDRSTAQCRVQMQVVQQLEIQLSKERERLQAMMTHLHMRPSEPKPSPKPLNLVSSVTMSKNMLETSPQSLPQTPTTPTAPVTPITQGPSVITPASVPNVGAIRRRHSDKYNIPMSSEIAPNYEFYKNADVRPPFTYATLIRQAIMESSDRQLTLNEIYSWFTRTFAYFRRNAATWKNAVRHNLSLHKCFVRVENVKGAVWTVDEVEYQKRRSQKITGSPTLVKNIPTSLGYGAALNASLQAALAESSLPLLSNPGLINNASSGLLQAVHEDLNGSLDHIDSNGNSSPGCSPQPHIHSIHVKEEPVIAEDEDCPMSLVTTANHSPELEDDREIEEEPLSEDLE
BCL11A-L (773 amino acids) (Q9H165, form named): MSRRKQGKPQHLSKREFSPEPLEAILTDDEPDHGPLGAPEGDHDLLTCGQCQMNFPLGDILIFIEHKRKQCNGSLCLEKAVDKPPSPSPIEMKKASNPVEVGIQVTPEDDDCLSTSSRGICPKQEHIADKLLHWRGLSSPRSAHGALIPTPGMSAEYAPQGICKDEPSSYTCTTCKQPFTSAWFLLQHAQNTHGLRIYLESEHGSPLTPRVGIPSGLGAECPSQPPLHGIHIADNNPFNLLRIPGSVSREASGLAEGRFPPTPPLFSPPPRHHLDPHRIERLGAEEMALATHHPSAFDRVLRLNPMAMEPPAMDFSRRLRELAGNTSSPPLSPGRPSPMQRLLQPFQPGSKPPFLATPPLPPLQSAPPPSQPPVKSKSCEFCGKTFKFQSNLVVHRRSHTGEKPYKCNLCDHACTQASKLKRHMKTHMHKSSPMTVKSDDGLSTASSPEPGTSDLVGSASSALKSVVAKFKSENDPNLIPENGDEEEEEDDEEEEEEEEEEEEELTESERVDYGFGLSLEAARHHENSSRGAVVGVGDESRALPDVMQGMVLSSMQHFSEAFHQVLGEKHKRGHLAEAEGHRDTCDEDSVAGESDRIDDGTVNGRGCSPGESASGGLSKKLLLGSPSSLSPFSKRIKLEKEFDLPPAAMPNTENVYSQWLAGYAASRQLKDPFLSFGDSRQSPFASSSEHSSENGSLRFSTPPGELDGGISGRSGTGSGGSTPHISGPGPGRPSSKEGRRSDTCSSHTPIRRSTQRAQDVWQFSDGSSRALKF

Common to all, as to assay: FRET or BRET; BRET in live HEK293 cells transfected with equimolar YFP and Rluc fusion constructs; read 48 h after transfection, after 4 h at 37 °C with 60 µM EnduRen; corrected BRET ratio, YFP-NLS and Rluc-NLS as control proteins
A general note: BRET reads energy transfer from a luciferase to a nearby fluorophore.

For test [1], the target named is FOXP2 (human) (UniProt O15409).
Test [2] addresses T1, TBR1 (T-box brain, 1), wild type (human) (UniProt Q16650).
T1 sequence: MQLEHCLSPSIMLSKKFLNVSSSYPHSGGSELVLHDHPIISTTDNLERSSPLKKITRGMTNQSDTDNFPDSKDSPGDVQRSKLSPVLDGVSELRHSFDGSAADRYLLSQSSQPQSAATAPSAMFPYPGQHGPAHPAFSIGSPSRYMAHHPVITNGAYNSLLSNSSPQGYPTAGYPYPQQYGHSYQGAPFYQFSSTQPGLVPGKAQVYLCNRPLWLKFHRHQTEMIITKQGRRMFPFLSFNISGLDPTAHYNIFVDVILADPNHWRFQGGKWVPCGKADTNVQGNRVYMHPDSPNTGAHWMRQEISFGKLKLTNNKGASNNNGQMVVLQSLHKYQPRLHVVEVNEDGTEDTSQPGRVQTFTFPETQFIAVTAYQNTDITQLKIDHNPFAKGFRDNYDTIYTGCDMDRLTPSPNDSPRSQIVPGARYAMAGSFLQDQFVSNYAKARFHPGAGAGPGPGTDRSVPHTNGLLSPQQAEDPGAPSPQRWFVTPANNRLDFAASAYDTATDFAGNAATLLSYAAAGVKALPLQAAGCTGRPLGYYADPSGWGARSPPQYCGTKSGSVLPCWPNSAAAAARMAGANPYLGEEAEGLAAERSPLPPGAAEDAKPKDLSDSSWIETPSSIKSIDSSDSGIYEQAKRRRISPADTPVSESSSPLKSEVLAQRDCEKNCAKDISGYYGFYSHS

For test [3], the target named is T2, FOXP1 (human) (UniProt Q9H334).
T2 sequence: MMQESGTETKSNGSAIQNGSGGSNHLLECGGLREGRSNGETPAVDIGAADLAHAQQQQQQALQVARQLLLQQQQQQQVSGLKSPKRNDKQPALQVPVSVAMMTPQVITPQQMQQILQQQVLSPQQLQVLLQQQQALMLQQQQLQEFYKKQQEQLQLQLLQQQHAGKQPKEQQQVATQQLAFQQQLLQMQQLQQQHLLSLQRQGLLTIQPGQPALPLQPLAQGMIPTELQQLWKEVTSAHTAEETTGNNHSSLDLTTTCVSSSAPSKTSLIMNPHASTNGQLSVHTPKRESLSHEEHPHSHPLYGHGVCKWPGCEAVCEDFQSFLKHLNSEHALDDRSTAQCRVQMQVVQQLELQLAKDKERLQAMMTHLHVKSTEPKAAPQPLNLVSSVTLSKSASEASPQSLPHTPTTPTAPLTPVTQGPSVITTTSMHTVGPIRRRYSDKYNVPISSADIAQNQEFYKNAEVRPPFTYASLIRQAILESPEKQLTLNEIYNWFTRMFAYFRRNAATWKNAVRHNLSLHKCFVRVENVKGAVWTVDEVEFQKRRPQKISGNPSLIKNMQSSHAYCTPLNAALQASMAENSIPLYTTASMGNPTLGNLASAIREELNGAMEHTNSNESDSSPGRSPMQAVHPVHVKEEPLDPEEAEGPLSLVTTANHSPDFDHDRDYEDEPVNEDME

The target of test [4] is TBR1 p.W271R (human) (UniProt Q16650).
Test [5] addresses BCL11A-L (773 amino acids) (human) (UniProt Q9H165).
The target in test [6] is TBR1 p.W271C (human) (UniProt Q16650).
The target of test [7] is TBR1 p.K389E (human) (UniProt Q16650).

Results are given in words; binding and its absence hold for the method and conditions named. In cells and extracts the contact can be indirect. Some entries that bind do so weakly or less than the wild type.

B1: TBR1 p.W271R (protein, UniProt Q16650-1 1-682)
chain: MQLEHCLSPSIMLSKKFLNVSSSYPHSGGSELVLHDHPIISTTDNLERSSPLKKITRGMTNQSDTDNFPDSKDSPGDVQRSKLSPVLDGVSELRHSFDGSAADRYLLSQSSQPQSAATAPSAMFPYPGQHGPAHPAFSIGSPSRYMAHHPVITNGAYNSLLSNSSPQGYPTAGYPYPQQYGHSYQGAPFYQFSSTQPGLVPGKAQVYLCNRPLWLKFHRHQTEMIITKQGRRMFPFLSFNISGLDPTAHYNIFVDVILADPNHWRFQGGKRVPCGKADTNVQGNRVYMHPDSPNTGAHWMRQEISFGKLKLTNNKGASNNNGQMVVLQSLHKYQPRLHVVEVNEDGTEDTSQPGRVQTFTFPETQFIAVTAYQNTDITQLKIDHNPFAKGFRDNYDTIYTGCDMDRLTPSPNDSPRSQIVPGARYAMAGSFLQDQFVSNYAKARFHPGAGAGPGPGTDRSVPHTNGLLSPQQAEDPGAPSPQRWFVTPANNRLDFAASAYDTATDFAGNAATLLSYAAAGVKALPLQAAGCTGRPLGYYADPSGWGARSPPQYCGTKSGSVLPCWPNSAAAAARMAGANPYLGEEAEGLAAERSPLPPGAAEDAKPKDLSDSSWIETPSSIKSIDSSDSGIYEQAKRRRISPADTPVSESSSPLKSEVLAQRDCEKNCAKDISGYYGFYSHS
On to B1, for which the binding entry in test [1], in test [2], in test [3], in test [4] and in test [5] was “binds” in each case.

B2: TBR1 p.W271C (protein, UniProt Q16650-1 1-682)
chain: MQLEHCLSPSIMLSKKFLNVSSSYPHSGGSELVLHDHPIISTTDNLERSSPLKKITRGMTNQSDTDNFPDSKDSPGDVQRSKLSPVLDGVSELRHSFDGSAADRYLLSQSSQPQSAATAPSAMFPYPGQHGPAHPAFSIGSPSRYMAHHPVITNGAYNSLLSNSSPQGYPTAGYPYPQQYGHSYQGAPFYQFSSTQPGLVPGKAQVYLCNRPLWLKFHRHQTEMIITKQGRRMFPFLSFNISGLDPTAHYNIFVDVILADPNHWRFQGGKCVPCGKADTNVQGNRVYMHPDSPNTGAHWMRQEISFGKLKLTNNKGASNNNGQMVVLQSLHKYQPRLHVVEVNEDGTEDTSQPGRVQTFTFPETQFIAVTAYQNTDITQLKIDHNPFAKGFRDNYDTIYTGCDMDRLTPSPNDSPRSQIVPGARYAMAGSFLQDQFVSNYAKARFHPGAGAGPGPGTDRSVPHTNGLLSPQQAEDPGAPSPQRWFVTPANNRLDFAASAYDTATDFAGNAATLLSYAAAGVKALPLQAAGCTGRPLGYYADPSGWGARSPPQYCGTKSGSVLPCWPNSAAAAARMAGANPYLGEEAEGLAAERSPLPPGAAEDAKPKDLSDSSWIETPSSIKSIDSSDSGIYEQAKRRRISPADTPVSESSSPLKSEVLAQRDCEKNCAKDISGYYGFYSHS
In the case of B2, the binding result is “no binding” in test [1]; “binds” in test [6]; “binds” in test [2]; “no binding” in test [3]; “binds” in test [5].

B3: TBR1 p.K389E (protein, UniProt Q16650-1 1-682)
chain: MQLEHCLSPSIMLSKKFLNVSSSYPHSGGSELVLHDHPIISTTDNLERSSPLKKITRGMTNQSDTDNFPDSKDSPGDVQRSKLSPVLDGVSELRHSFDGSAADRYLLSQSSQPQSAATAPSAMFPYPGQHGPAHPAFSIGSPSRYMAHHPVITNGAYNSLLSNSSPQGYPTAGYPYPQQYGHSYQGAPFYQFSSTQPGLVPGKAQVYLCNRPLWLKFHRHQTEMIITKQGRRMFPFLSFNISGLDPTAHYNIFVDVILADPNHWRFQGGKWVPCGKADTNVQGNRVYMHPDSPNTGAHWMRQEISFGKLKLTNNKGASNNNGQMVVLQSLHKYQPRLHVVEVNEDGTEDTSQPGRVQTFTFPETQFIAVTAYQNTDITQLKIDHNPFAEGFRDNYDTIYTGCDMDRLTPSPNDSPRSQIVPGARYAMAGSFLQDQFVSNYAKARFHPGAGAGPGPGTDRSVPHTNGLLSPQQAEDPGAPSPQRWFVTPANNRLDFAASAYDTATDFAGNAATLLSYAAAGVKALPLQAAGCTGRPLGYYADPSGWGARSPPQYCGTKSGSVLPCWPNSAAAAARMAGANPYLGEEAEGLAAERSPLPPGAAEDAKPKDLSDSSWIETPSSIKSIDSSDSGIYEQAKRRRISPADTPVSESSSPLKSEVLAQRDCEKNCAKDISGYYGFYSHS
As to B3, the binding entry in test [7] is on record as “binds”; in test [1], “no binding”; in test [2], “binds”; in test [3] it was “no binding”; in test [5], “binds”.
